Measurements as given in paper PMC6054203.
These are yes or no findings as the source states them, for the method shown. Sequences can lack the tags named with a protein.

Amino acid sequences for entries named in this document (tags omitted).
UniProt Q9FJ54: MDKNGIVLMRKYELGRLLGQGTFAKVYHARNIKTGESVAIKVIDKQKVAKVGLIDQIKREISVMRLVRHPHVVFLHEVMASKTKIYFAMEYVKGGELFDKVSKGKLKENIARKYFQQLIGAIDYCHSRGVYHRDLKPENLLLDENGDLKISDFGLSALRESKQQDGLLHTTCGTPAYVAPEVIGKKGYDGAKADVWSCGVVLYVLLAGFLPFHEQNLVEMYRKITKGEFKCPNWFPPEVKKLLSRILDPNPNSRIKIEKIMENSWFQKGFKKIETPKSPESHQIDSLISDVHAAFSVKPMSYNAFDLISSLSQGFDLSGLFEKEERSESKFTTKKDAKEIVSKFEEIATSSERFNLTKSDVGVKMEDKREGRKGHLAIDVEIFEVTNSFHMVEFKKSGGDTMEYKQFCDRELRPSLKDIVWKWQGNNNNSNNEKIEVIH

Columns and labels:
Assay in all cases: two-hybrid; yeast strain AH109 co-transformed with AD (pGAD.GH) and BD (pGBT9.BS) fusions; growth on SC-LWH and on SC-LWH with 0.5 and 3.0 mM 3-AT
[1] = biological target: T1, CIPK22, two-hybrid fusion (Arabidopsis) (UniProt O80902)
T1 sequence: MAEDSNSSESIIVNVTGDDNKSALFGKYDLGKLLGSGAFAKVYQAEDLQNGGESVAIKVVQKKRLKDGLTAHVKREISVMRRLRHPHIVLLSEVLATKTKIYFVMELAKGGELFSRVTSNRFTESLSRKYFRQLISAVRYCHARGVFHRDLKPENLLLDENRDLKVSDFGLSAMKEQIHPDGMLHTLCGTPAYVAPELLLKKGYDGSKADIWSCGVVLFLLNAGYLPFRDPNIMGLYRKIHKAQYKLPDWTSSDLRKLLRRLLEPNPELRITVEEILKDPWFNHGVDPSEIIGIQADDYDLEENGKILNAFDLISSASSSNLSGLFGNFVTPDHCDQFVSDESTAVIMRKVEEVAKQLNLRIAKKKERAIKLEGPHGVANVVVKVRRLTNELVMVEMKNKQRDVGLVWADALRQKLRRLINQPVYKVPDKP

[2] = biological target: T2, CIPK8, two-hybrid fusion (Arabidopsis) (UniProt Q9STV4)
T2 sequence: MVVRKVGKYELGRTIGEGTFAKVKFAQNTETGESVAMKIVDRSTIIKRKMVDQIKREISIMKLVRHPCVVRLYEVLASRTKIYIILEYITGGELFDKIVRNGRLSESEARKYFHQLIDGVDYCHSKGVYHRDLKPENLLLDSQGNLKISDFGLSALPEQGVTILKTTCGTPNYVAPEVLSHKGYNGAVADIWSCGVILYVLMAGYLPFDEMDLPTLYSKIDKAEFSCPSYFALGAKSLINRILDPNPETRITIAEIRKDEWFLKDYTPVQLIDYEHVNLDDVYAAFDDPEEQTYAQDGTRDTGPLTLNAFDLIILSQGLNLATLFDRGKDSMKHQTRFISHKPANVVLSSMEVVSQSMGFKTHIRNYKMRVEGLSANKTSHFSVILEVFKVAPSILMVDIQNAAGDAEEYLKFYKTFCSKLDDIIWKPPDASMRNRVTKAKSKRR

[3] = biological target: CIPK20, two-hybrid fusion (Arabidopsis) (UniProt Q9FJ54)
[4] = biological target: T3, CIPK25, two-hybrid fusion (Arabidopsis) (UniProt Q8W1D5)
T3 sequence: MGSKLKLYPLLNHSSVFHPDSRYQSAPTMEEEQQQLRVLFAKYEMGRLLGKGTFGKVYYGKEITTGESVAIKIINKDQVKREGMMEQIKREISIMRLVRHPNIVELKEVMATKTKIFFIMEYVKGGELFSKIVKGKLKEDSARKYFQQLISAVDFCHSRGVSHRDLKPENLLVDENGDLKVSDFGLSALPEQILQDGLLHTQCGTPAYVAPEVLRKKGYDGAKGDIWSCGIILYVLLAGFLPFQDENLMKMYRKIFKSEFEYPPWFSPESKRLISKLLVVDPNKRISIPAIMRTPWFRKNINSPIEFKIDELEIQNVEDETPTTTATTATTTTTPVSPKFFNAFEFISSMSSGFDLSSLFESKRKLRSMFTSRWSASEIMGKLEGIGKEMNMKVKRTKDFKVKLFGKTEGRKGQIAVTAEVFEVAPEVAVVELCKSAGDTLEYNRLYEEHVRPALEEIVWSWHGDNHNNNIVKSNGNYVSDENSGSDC

[5] = biological target: T4, CIPK14, two-hybrid fusion (Arabidopsis) (UniProt Q9LZW4)
T4 sequence: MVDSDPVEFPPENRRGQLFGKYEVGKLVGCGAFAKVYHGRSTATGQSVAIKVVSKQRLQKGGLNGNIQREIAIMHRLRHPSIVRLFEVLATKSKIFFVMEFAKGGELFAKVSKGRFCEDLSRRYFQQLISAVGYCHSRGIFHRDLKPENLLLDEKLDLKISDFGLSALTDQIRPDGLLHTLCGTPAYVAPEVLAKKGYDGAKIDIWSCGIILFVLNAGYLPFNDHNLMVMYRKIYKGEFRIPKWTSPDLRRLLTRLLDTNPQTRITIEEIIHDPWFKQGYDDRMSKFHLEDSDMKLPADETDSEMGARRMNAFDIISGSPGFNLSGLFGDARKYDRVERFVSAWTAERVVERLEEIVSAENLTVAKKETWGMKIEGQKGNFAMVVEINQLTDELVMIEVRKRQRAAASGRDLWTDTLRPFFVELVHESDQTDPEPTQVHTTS

[6] = biological target: T5, CIPK18, two-hybrid fusion (Arabidopsis) (UniProt Q9LP51)
T5 sequence: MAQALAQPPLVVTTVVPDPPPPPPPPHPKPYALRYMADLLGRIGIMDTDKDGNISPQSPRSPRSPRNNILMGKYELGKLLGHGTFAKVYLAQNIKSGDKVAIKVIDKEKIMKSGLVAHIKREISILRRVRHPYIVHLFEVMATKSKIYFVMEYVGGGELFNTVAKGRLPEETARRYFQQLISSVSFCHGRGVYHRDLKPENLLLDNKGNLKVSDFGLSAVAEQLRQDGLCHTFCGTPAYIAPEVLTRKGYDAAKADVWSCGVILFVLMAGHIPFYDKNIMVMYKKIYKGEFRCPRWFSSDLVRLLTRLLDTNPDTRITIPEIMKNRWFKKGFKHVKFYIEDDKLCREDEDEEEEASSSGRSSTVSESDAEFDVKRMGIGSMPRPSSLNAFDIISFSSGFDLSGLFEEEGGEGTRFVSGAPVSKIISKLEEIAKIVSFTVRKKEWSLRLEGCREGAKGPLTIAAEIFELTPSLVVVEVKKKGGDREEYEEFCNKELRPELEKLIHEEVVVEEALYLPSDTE

Measured: binding

B1: AP2C1 (protein phosphatase 2C), two-hybrid fusion (enzyme, UniProt O80871 1-396)
chain: MSCSVAVCNSPVFSPSSSLFCNKSSILSSPQESLSLTLSHRKPQTSSPSSPSTTVSSPKSPFRLRFQKPPSGFAPGPLSFGSESVSASSPPGGVLKRKRPTRLDIPIGVAGFVAPISSSAAVAATPREECREVEREGDGYSVYCKRGRREAMEDRFSAITNLHGDRKQAIFGVYDGHGGVKAAEFAAKNLDKNIVEEVVGKRDESEIAEAVKHGYLATDASFLKEEDVKGGSCCVTALVNEGNLVVSNAGDCRAVMSVGGVAKALSSDHRPSRDDERKRIETTGGYVDTFHGVWRIQGSLAVSRGIGDAQLKKWVIAEPETKISRIEHDHEFLILASDGLWDKVSNQEAVDIARPLCLGTEKPLLLAACKKLVDLSASRGSSDDISVMLIPLRQFI
no binding: all assays above
